What all share (experiment): co-IP; HA-tagged mouse Zdhhc proteins transfected into 293T ZDHHC5 KO and control cells; lysis in 50 mM Tris-HCl pH 7.4, 150 mM NaCl, 2 mM EDTA, 1% DDM; anti-HA magnetic beads overnight at 4 °C; washes in TBS with 0.5% DDM; blots for endogenous GOLGA7 or ZDHHC9
In experiment [1] the target is HA-Zdhhc5^RNAA (mouse Zdhhc5 double mutant) (mouse) (UniProt Q8VDZ4).
The target in experiment [2] is HA-Zdhhc5^ΔC-term (mouse Zdhhc5 lacking the C terminus) (mouse) (UniProt Q8VDZ4).
Experiment [3] deals with T1, HA-Zdhhc5^ΔN-term (mouse Zdhhc5 lacking the N terminus and transmembrane domains) (mouse) (UniProt Q8VDZ4).
T1 sequence: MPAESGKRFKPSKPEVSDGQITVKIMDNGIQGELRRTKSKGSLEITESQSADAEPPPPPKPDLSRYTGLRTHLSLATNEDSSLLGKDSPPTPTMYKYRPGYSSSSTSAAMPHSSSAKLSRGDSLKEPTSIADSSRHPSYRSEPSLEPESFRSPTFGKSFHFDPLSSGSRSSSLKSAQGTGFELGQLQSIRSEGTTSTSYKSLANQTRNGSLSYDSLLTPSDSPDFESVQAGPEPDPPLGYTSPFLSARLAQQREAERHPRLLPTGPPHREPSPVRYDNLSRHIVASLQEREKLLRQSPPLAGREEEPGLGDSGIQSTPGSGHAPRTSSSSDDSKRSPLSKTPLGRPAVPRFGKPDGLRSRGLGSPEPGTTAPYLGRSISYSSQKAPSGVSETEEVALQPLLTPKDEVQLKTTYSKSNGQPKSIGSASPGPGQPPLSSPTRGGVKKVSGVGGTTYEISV

Chains of the proteins cited; added tags and fusions are not shown.
UniProt Q8BQQ1: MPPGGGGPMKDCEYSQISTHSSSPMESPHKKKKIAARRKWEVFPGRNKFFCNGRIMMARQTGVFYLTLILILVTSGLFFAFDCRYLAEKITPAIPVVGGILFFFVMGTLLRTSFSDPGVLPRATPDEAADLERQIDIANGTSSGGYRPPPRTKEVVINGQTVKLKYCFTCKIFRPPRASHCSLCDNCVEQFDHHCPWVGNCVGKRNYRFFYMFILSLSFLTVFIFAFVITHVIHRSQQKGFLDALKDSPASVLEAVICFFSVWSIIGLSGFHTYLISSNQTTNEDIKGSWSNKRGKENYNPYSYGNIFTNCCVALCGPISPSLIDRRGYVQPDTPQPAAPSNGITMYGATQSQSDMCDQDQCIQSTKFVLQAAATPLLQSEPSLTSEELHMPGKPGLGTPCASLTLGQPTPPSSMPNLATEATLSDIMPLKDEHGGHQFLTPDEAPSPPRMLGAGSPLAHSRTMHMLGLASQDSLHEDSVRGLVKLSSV
UniProt Q5Y5T5: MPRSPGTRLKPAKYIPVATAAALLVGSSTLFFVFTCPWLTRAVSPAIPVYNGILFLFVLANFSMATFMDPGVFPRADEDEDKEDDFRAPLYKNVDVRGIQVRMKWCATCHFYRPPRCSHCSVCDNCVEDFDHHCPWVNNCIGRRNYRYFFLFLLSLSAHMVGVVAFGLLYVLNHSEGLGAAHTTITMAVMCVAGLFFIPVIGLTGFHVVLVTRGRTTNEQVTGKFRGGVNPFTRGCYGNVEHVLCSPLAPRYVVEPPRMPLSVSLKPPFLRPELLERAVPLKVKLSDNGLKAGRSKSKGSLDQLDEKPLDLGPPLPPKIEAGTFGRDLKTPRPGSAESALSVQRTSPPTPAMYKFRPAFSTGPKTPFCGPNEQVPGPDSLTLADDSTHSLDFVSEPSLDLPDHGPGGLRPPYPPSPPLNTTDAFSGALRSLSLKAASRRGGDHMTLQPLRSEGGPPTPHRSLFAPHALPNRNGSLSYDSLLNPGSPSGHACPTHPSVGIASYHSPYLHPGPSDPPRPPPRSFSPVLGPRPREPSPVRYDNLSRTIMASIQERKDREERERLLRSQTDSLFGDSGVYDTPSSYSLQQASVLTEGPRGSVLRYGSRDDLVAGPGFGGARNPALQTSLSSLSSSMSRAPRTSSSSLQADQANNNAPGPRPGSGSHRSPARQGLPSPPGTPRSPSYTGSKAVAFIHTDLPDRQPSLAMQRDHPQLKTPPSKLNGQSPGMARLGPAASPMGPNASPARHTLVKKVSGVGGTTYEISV
UniProt Q7Z5G4: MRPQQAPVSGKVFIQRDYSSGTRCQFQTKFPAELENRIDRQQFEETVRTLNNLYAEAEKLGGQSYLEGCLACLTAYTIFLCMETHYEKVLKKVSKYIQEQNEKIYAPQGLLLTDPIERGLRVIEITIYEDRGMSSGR

Experiment [4] addresses HA-tagged mouse Zdhhc14 (mouse) (UniProt Q8BQQ1).
Experiment [5] has as its target T2, HA-tagged mouse Zdhhc20 (mouse) (UniProt Q5Y5T1).
T2 sequence: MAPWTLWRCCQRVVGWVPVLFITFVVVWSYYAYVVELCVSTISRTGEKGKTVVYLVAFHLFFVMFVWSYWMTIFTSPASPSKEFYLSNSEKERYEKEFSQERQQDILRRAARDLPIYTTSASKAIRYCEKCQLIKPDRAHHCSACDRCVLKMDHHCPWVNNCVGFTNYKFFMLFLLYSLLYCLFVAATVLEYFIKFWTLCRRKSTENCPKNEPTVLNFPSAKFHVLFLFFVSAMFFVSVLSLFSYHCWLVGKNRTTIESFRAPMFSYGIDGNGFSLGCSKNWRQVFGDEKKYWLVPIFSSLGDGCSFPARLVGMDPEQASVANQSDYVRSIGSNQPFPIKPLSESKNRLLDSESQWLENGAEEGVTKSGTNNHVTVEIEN

Experiment [6] deals with HA-tagged mouse Zdhhc5, wild type (mouse) (UniProt Q8VDZ4).
In experiment [7] the target is T3, HA-tagged mouse Zdhhc6 (mouse) (UniProt Q9CPV7).
T3 sequence: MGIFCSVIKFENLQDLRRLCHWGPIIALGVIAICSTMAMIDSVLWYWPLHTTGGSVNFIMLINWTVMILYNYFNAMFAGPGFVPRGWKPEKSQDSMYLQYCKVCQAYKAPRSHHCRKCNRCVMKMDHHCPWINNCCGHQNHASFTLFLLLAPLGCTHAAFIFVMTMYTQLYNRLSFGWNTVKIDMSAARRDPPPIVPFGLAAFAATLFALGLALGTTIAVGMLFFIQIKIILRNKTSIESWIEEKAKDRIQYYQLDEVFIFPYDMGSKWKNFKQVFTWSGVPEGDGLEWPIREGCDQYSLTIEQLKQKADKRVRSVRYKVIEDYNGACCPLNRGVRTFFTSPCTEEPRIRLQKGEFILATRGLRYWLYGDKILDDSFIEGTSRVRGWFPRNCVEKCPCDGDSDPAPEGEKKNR

The target in experiment [8] is HA-tagged mouse Zdhhc8 (mouse) (UniProt Q5Y5T5).

These are yes or no findings as the source states them, for the method shown. Binding seen in cells or lysates may run through a third protein. Some entries that bind do so weakly or less than the wild type. For some assays here: Tags and fused reporters may be left off the sequences shown.

Data on one substance can be found in article PMC12528901.

Regarding “endogenous human golgin A7 (GOLGA7) (from UniProt Q7Z5G4 1-137)”, the binding entry in experiment [1] is reported as “no binding”; in experiment [2], “binds”; in experiment [3], “no binding”; in experiment [4], “binds”; in experiment [5], “no binding”; in experiment [6], “binds”. Further, the binding entry in experiment [7] is on record as “no binding”; in experiment [8], “binds”.
